Measurements: the supplement of paper PMC8728848
The list shows a part of the results.

What was measured:
Assay in all cases: glycan array binding signal (z-score within array); higher = stronger binding
Details in all cases: glycan notation: IUPAC condensed, linker removed
[1] = molecular target: Neu5Ac(a2-3)Gal(b1-3)GalNAc
How it was run: (§1)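 Glycan array data were curated from 3228 arrays in the Consortium for Functional Glycomics database and kept only where the protein sequence was available. Glycan names were converted to IUPAC-condensed notation, and columns mapping to the same glycan were averaged. The binding signal is a within-array Z-score, averaged across arrays of the same protein sequence at different concentrations or buffers and across linkers. Negative Z-scores can be read as non-binding.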

[2] = molecular target: Neu5Ac(a2-3)Gal(b1-3)GalNAc(b1-3)Gal(a1-4)Gal(b1-4)Glc
How it was run: as §1

[3] = molecular target: Neu5Ac(a2-3)Gal(b1-3)GalNAc(b1-4)[Neu5Ac(a2-3)]Gal(b1-4)Glc
How it was run: as §1

[4] = molecular target: Neu5Ac(a2-3)Gal(b1-3)GalNAc(b1-4)[Neu5Ac(a2-8)Neu5Ac(a2-3)]Gal(b1-4)Glc
How it was run: as §1

[5] = molecular target: Neu5Ac(a2-3)Gal(b1-3)GalNAc6S
How it was run: as §1

[6] = molecular target: Neu5Ac(a2-3)Gal(b1-3)GlcNAc
How it was run: as §1

[7] = molecular target: Neu5Ac(a2-3)Gal(b1-3)GlcNAc(b1-2)Man
How it was run: as §1

[8] = molecular target: Neu5Ac(a2-3)Gal(b1-3)GlcNAc(b1-2)Man(a1-3)[GlcNAc(b1-4)][Neu5Ac(a2-3)Gal(b1-3)GlcNAc(b1-2)Man(a1-6)]Man(b1-4)GlcNAc(b1-4)GlcNAc
How it was run: as §1

[9] = molecular target: Neu5Ac(a2-3)Gal(b1-3)GlcNAc(b1-2)Man(a1-3)[Neu5Ac(a2-3)Gal(b1-3)GlcNAc(b1-2)Man(a1-6)]Man(b1-4)GlcNAc(b1-4)GlcNAc
How it was run: as §1

[10] = molecular target: Neu5Ac(a2-3)Gal(b1-3)GlcNAc(b1-3)Gal(b1-3)GlcNAc
How it was run: as §1

[11] = molecular target: Neu5Ac(a2-3)Gal(b1-3)GlcNAc(b1-3)Gal(b1-4)GlcNAc
How it was run: as §1

[12] = molecular target: Neu5Ac(a2-3)Gal(b1-3)GlcNAc(b1-3)GalNAc
How it was run: as §1

[13] = molecular target: Neu5Ac(a2-3)Gal(b1-3)GlcNAc(b1-4)Gal(b1-4)Glc
How it was run: as §1

[14] = molecular target: Neu5Ac(a2-3)Gal(b1-3)GlcNAc(b1-6)GalNAc
How it was run: as §1

[15] = molecular target: Neu5Ac(a2-3)Gal(b1-3)GlcNAc6S
How it was run: as §1

[16] = molecular target: Neu5Ac(a2-3)Gal(b1-3)[Fuc(a1-4)]GlcNAc
How it was run: as §1

[17] = molecular target: Neu5Ac(a2-3)Gal(b1-3)[Fuc(a1-4)]GlcNAc(b1-3)Gal(b1-3)[Fuc(a1-4)]GlcNAc
How it was run: as §1

[18] = molecular target: Neu5Ac(a2-3)Gal(b1-3)[Fuc(a1-4)]GlcNAc(b1-3)Gal(b1-4)[Fuc(a1-3)]GlcNAc
How it was run: as §1

[19] = molecular target: Neu5Ac(a2-3)Gal(b1-3)[GlcNAc(b1-6)]GalNAc
How it was run: as §1

[20] = molecular target: Neu5Ac(a2-3)Gal(b1-3)[Neu5Ac(a2-6)]GalNAc
How it was run: as §1

[21] = molecular target: Neu5Ac(a2-3)Gal(b1-3)[Neu5Ac(a2-6)]GlcNAc(b1-3)[Fuc(a1-3)[Gal(b1-4)]GlcNAc(b1-6)]Gal(b1-4)Glc
How it was run: as §1

[22] = molecular target: Neu5Ac(a2-3)Gal(b1-3)]Neu5Ac(a2-3)Gal(b1-4)]GlcNAc
How it was run: as §1

[23] = molecular target: Neu5Ac(a2-3)Gal(b1-4)Glc
How it was run: as §1

[24] = molecular target: Neu5Ac(a2-3)Gal(b1-4)GlcNAc
How it was run: as §1

[25] = molecular target: Neu5Ac(a2-3)Gal(b1-4)GlcNAc(b1-2)Man
How it was run: as §1

[26] = molecular target: Neu5Ac(a2-3)Gal(b1-4)GlcNAc(b1-2)Man(a1-3)[GlcNAc(b1-4)][Neu5Ac(a2-3)Gal(b1-4)GlcNAc(b1-2)Man(a1-6)]Man(b1-4)GlcNAc(b1-4)GlcNAc
How it was run: as §1

[27] = molecular target: Neu5Ac(a2-3)Gal(b1-4)GlcNAc(b1-2)Man(a1-3)[Neu5Ac(a2-3)Gal(b1-4)GlcNAc(b1-2)Man(a1-6)]Man(b1-4)GlcNAc(b1-4)GlcNAc
How it was run: as §1

[28] = molecular target: Neu5Ac(a2-3)Gal(b1-4)GlcNAc(b1-2)Man(a1-3)[Neu5Ac(a2-3)Gal(b1-4)GlcNAc(b1-2)Man(a1-6)]Man(b1-4)GlcNAc(b1-4)[Fuc(a1-6)]GlcNAc
How it was run: as §1

[29] = molecular target: Neu5Ac(a2-3)Gal(b1-4)GlcNAc(b1-2)Man(a1-3)[Neu5Ac(a2-6)Gal(b1-4)GlcNAc(b1-2)Man(a1-6)]Man(b1-4)GlcNAc(b1-4)GlcNAc
How it was run: as §1

[30] = molecular target: Neu5Ac(a2-3)Gal(b1-4)GlcNAc(b1-2)[Neu5Ac(a2-3)Gal(b1-4)GlcNAc(b1-4)]Man(a1-3)[GlcNAc(b1-4)][Neu5Ac(a2-3)Gal(b1-4)GlcNAc(b1-2)[Neu5Ac(a2-3)Gal(b1-4)GlcNAc(b1-6)]Man(a1-6)]Man(b1-4)GlcNAc(b1-4)GlcNAc
How it was run: as §1

[31] = molecular target: Neu5Ac(a2-3)Gal(b1-4)GlcNAc(b1-2)[Neu5Ac(a2-3)Gal(b1-4)GlcNAc(b1-4)]Man(a1-3)[GlcNAc(b1-4)][Neu5Ac(a2-3)Gal(b1-4)GlcNAc(b1-4)Man(a1-6)]Man(b1-4)GlcNAc(b1-4)GlcNAc
How it was run: as §1

[32] = molecular target: Neu5Ac(a2-3)Gal(b1-4)GlcNAc(b1-2)[Neu5Ac(a2-3)Gal(b1-4)GlcNAc(b1-6)]Man(a1-6)[Neu5Ac(a2-3)Gal(b1-4)GlcNAc(b1-2)Man(a1-3)]Man(b1-4)GlcNAc(b1-4)GlcNAc
How it was run: as §1

[33] = molecular target: Neu5Ac(a2-3)Gal(b1-4)GlcNAc(b1-2)[Neu5Ac(a2-3)Gal(b1-4)GlcNAc(b1-6)]Man(a1-6)[Neu5Ac(a2-3)Gal(b1-4)GlcNAc(b1-2)Man(a1-3)][GlcNAc(b1-4)]Man(b1-4)GlcNAc(b1-4)GlcNAc
How it was run: as §1

[34] = molecular target: Neu5Ac(a2-3)Gal(b1-4)GlcNAc(b1-3)Gal
How it was run: as §1

[35] = molecular target: Neu5Ac(a2-3)Gal(b1-4)GlcNAc(b1-3)Gal(b1-3)GlcNAc
How it was run: as §1

[36] = molecular target: Neu5Ac(a2-3)Gal(b1-4)GlcNAc(b1-3)Gal(b1-4)GlcNAc
How it was run: as §1

[37] = molecular target: Neu5Ac(a2-3)Gal(b1-4)GlcNAc(b1-3)Gal(b1-4)GlcNAc(b1-2)Man(a1-3)[Neu5Ac(a2-3)Gal(b1-4)GlcNAc(b1-3)Gal(b1-4)GlcNAc(b1-2)Man(a1-6)]Man(b1-4)GlcNAc(b1-4)GlcNAc
How it was run: as §1

[38] = molecular target: Neu5Ac(a2-3)Gal(b1-4)GlcNAc(b1-3)Gal(b1-4)GlcNAc(b1-3)Gal(b1-4)GlcNAc
How it was run: as §1

[39] = molecular target: Neu5Ac(a2-3)Gal(b1-4)GlcNAc(b1-3)Gal(b1-4)GlcNAc(b1-3)Gal(b1-4)GlcNAc(b1-2)Man(a1-3)[Neu5Ac(a2-3)Gal(b1-4)GlcNAc(b1-3)Gal(b1-4)GlcNAc(b1-3)Gal(b1-4)GlcNAc(b1-2)Man(a1-6)]GalNAc
How it was run: as §1

[40] = molecular target: Neu5Ac(a2-3)Gal(b1-4)GlcNAc(b1-3)Gal(b1-4)GlcNAc(b1-3)GalNAc
How it was run: as §1

[41] = molecular target: Neu5Ac(a2-3)Gal(b1-4)GlcNAc(b1-3)Gal(b1-4)GlcNAc(b1-3)[Neu5Ac(a2-3)Gal(b1-4)GlcNAc(b1-3)Gal(b1-4)GlcNAc(b1-6)]GalNAc
How it was run: as §1

[42] = molecular target: Neu5Ac(a2-3)Gal(b1-4)GlcNAc(b1-3)Gal(b1-4)GlcNAc(b1-6)[Gal(b1-3)]GalNAc
How it was run: as §1

[43] = molecular target: Neu5Ac(a2-3)Gal(b1-4)GlcNAc(b1-3)Gal(b1-4)[Fuc(a1-3)]GlcNAc
How it was run: as §1

[44] = molecular target: Neu5Ac(a2-3)Gal(b1-4)GlcNAc(b1-3)GalNAc
How it was run: as §1

[45] = molecular target: Neu5Ac(a2-3)Gal(b1-4)GlcNAc(b1-3)[Neu5Ac(a2-3)Gal(b1-4)GlcNAc(b1-6)]GalNAc
How it was run: as §1

B1: AidA (Burkholderia cenocepacia) (protein)
chain: MSRVTDVLVSFDTETILKKYPNPSKNPAAPTLIDWRYVYMVTNQDNVISGQAGGELDLKAQVGDLIRWRETSLSLGFENQVVFYKFIGNVGNDLISTPTPRVAEASIPVPNTSKPEVPTCQKVANYYWSSECLKVGRVTYHFQFQIIDRNCQSQGCFSWDPFISIHN
glycan array binding signal (z-score) [1]: -0.739 | glycan array binding signal (z-score) [2]: 1 | glycan array binding signal (z-score) [3]: -0.642 | glycan array binding signal (z-score) [4]: -0.849 | glycan array binding signal (z-score) [5]: 0.29 | glycan array binding signal (z-score) [6]: 0.059 | glycan array binding signal (z-score) [7]: -0.198 | glycan array binding signal (z-score) [8]: -0.017 | glycan array binding signal (z-score) [9]: 0.807 | glycan array binding signal (z-score) [10]: -0.146 | glycan array binding signal (z-score) [11]: 0.402 | glycan array binding signal (z-score) [12]: -0.595 | glycan array binding signal (z-score) [13]: -0.358 | glycan array binding signal (z-score) [14]: -0.685 | glycan array binding signal (z-score) [15]: -0.232 | glycan array binding signal (z-score) [16]: 0.146 | glycan array binding signal (z-score) [17]: -0.82 | glycan array binding signal (z-score) [18]: -0.303 | glycan array binding signal (z-score) [19]: -0.597 | glycan array binding signal (z-score) [20]: -0.099 | glycan array binding signal (z-score) [21]: -0.545 | glycan array binding signal (z-score) [22]: -0.396 | glycan array binding signal (z-score) [23]: 1.04 | glycan array binding signal (z-score) [24]: -0.138 | glycan array binding signal (z-score) [25]: 1.58 | glycan array binding signal (z-score) [26]: -0.361 | glycan array binding signal (z-score) [27]: -1.1 | glycan array binding signal (z-score) [28]: -0.317 | glycan array binding signal (z-score) [29]: -0.742 | glycan array binding signal (z-score) [30]: -0.793 | glycan array binding signal (z-score) [31]: 0.162 | glycan array binding signal (z-score) [32]: -0.231 | glycan array binding signal (z-score) [33]: -0.721 | glycan array binding signal (z-score) [34]: 0.027 | glycan array binding signal (z-score) [35]: 0.211 | glycan array binding signal (z-score) [36]: -0.255 | glycan array binding signal (z-score) [37]: -0.048 | glycan array binding signal (z-score) [38]: -0.05 | glycan array binding signal (z-score) [39]: -0.338 | glycan array binding signal (z-score) [40]: -0.359 | glycan array binding signal (z-score) [41]: -0.837 | glycan array binding signal (z-score) [42]: -0.559 | glycan array binding signal (z-score) [43]: -0.026 | glycan array binding signal (z-score) [44]: -0.359 | glycan array binding signal (z-score) [45]: -0.557
